Assay [1] deals with T1, GST-Nup88-C (human) (UniProt Q99567).
T1 sequence: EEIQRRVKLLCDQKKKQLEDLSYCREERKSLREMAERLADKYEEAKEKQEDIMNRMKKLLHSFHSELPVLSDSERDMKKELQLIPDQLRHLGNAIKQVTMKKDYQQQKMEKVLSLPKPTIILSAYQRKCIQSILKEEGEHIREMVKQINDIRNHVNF
In words: pull-down; 20 µg GST fusion protein on glutathione beads, 500 µg HEK293T cell lysate (endogenous proteins or expressed GFP fusions), 1 h at 4 °C; wash buffer 20 mM Tris, 150 mM NaCl, 1 mM EDTA; western blot; only the target purified.

Sequences of proteins named here, by UniProt entry; tags and fusion partners are left off. A change or cut given only in a name is not applied to a line headed by its entry. Residues count along the entry.
UniProt P37198: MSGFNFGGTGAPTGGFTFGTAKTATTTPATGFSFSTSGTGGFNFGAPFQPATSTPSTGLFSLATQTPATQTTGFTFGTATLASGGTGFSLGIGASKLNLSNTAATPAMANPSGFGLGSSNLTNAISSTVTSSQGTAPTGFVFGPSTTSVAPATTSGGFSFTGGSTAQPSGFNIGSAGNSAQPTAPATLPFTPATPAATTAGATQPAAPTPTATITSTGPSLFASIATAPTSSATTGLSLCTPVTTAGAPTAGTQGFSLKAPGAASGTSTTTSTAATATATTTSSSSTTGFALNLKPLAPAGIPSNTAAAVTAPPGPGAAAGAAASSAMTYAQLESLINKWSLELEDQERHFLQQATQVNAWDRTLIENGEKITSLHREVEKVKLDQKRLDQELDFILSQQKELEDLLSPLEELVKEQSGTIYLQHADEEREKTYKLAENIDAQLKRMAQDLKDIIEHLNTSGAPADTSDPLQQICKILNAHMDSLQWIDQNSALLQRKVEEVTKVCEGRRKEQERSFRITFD
GST-Nup62-C1: residues 328-458 of P37198
UniProt Q04206: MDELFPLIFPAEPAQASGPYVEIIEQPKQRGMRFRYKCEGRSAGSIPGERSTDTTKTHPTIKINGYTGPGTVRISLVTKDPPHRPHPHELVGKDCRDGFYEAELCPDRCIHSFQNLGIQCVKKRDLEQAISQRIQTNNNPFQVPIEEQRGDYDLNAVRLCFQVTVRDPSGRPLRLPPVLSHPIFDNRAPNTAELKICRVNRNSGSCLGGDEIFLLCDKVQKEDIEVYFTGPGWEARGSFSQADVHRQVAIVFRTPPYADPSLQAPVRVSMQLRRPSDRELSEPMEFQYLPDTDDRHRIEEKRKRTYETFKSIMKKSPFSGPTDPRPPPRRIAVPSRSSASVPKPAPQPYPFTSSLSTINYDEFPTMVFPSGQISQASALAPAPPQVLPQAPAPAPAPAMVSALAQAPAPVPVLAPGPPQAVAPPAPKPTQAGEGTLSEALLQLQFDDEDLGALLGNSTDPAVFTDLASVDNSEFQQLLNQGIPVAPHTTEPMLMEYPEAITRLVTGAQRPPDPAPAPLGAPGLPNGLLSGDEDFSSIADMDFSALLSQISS

In assay [2] the target is T1, GST-Nup88-C (human). In words: pull-down; Figure S3: Nup88-C or PPL-C as bait; endogenous Nup62 and exogenously expressed GFP-Nup62-C1 as prey; methods not shown.
Assay [3] concerns the target GST-Nup62-C1 (UniProt P37198). Nature of the assay: pull-down; 20 µg GST fusion protein on glutathione beads, 500 µg HEK293T cell lysate (endogenous proteins or expressed GFP fusions), 1 h at 4 °C; wash buffer 20 mM Tris, 150 mM NaCl, 1 mM EDTA; western blot; only the target purified.
The target of assay [4] is T2, Nup88-C, GAL4 DNA binding domain construct (pGBDU) (human) (UniProt Q99567).
T2 sequence: T1 sequence
In words: two-hybrid; yeast strain PJ69-4A, pGBDU (DNA binding domain) and pGAD (activation domain) constructs; growth on medium lacking Leu, Ura and His, 30 °C, three days.

Assay [5] addresses T1, GST-Nup88-C (human). Nature of the assay: pull-down; GST fusion protein on glutathione beads, lysates of asynchronous and synchronized HeLa cells, 1 h at 4 °C; western blot; only the target purified.
Assay [6] deals with T3, GFP-Nup88-C (human) (UniProt Q99567).
T3 sequence: T1 sequence
Nature of the assay: pull-down; GBP pull-down: lysates of HEK293T cells expressing GFP fusions incubated with GST-GBP at 4 °C 12 h, glutathione beads 4 h; blot for endogenous Nup62.

The target in assay [7] is T4, GFP-Nup88 (human) (UniProt Q99567).
T4 sequence: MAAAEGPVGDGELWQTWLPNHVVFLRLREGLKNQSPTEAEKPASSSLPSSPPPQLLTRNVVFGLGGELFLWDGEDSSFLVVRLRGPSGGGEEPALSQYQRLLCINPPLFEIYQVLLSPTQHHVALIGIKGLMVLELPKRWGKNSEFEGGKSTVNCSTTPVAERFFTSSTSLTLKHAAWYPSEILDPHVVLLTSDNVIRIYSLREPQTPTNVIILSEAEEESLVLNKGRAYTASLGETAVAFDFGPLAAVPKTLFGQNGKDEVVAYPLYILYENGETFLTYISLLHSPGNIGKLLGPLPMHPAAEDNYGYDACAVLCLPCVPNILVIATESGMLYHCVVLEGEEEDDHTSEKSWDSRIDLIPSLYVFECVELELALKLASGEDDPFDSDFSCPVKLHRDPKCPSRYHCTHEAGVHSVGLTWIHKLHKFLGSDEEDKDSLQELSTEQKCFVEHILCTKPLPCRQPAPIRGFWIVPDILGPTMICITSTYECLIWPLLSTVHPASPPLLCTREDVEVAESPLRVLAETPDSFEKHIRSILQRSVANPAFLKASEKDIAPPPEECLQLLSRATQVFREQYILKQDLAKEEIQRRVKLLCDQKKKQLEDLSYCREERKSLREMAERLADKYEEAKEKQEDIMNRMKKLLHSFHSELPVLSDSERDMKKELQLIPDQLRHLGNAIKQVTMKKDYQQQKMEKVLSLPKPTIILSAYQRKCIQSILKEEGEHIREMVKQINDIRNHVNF
The assay is described as above.

In assay [8] the target is T5, GFP-Nup88-delC (human) (UniProt Q99567).
T5 sequence: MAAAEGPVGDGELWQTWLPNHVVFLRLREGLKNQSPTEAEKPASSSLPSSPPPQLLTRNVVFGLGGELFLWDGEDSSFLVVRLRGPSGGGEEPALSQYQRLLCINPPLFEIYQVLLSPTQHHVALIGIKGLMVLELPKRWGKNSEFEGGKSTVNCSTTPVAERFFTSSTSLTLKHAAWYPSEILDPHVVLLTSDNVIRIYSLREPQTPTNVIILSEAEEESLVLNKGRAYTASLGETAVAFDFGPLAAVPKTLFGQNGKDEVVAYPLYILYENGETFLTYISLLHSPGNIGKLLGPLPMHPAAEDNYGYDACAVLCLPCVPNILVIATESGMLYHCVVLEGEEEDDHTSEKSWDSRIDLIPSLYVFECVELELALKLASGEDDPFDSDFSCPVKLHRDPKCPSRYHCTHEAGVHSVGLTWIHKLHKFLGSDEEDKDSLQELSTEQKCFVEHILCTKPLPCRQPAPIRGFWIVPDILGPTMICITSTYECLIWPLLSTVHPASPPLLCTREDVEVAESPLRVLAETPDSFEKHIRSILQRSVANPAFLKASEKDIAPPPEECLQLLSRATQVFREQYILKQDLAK
Described as above.

The target of assay [9] is T4, GFP-Nup88 (human). In words: pull-down; GBP pull-down of GFP-Nup88 from lysates of HeLa cells synchronized at G1/S and released for the indicated time intervals; blot for GFP and Nup62.

Results on seven molecules are retold here after article PMC9947638.

No constants are given. Whether binding was seen depends on the method and setting. For part of these data: Binding seen in cells or lysates may run through a third protein. Some results given as binding are weak or reduced against the parent protein; the word gives no strength. For part of these data: Sequences can lack the tags named with a protein.

GFP-Nup62 (from UniProt P37198 1-522): in assay [1], the binding entry is “binds”.
“GFP-Nup62-C1 (from UniProt P37198 328-458) (domain or fragment)”: the binding entry in [2] and in assay [1] was “binds” each time.
“NF-κB (p65), endogenous (from UniProt Q04206 1-551)”: the binding result in assay [1] and in assay [3] was “no binding” throughout.
With “Nup62-C1, GAL4 activation domain construct (pGAD) (from UniProt P37198 328-458) (domain or fragment)”, the binding entry in assay [4] is “binds”.
Regarding “endogenous Nup62 (from UniProt P37198 1-522)”, the binding result in assay [5] is reported as “binds”; in [2], “binds”; in assay [6] it was “binds”; in assay [7], “binds”; in assay [8], “no binding”; in [9], “binds”. The binding result in assay [1] is reported as “binds”.

B1: GFP-Nup88-C (domain or fragment, UniProt Q99567 585-741)
chain: T1 sequence
For the molecule B1, the binding result in [3] is recorded as “binds”.

B2: GFP-Nup88-delC (domain or fragment, UniProt Q99567 1-584)
chain: T5 sequence
As to B2, the binding entry in assay [3] was “no binding”.
